The assay has as its target T1, PD-L1 on the surface of murine cells (MC38, B16, wild-type DC 2.4) (murine, UniProt Q9EP73).
T1 construct: whole, on cells; also called PD-L1 antigen; Cd274 gene product
Description: FACS on MC38 cells, FITC-labeled goat anti-human secondary antibody. The source says:
A. The histograms of different colors represent, from top to bottom, the fluorescence signals measured for the negative control (NC) group, the secondary antibody group, the anti-PD-L1 antibody group, the anti-PD-L1 THIOMAB group, and the ADC HE-S2 group, respectively. B. Mean fluorescence intensity (MFI) measured after treatment with different antibody-based drugs on MC38. NC group: the negative control only added with the isotype antibody, with no secondary antibody added for staining; secondary antibody group: the control group added with the isotype antibody and stained with fluorescent secondary antibody. Student's t test was used to compare significant differences between the groups, and p<0.0001 is represented by ****.
With PD-L1 positive MC38 as a platform, the inventors verified whether ADC HE-S2 and the gene-modified anti-PD-L1 THIOMAB retained the original antibody-antigen binding capacity by using a fluorescence activated cell sorting (FACS) technique. […] The stained MC38 cells were analyzed on a BD FACSAria™ III flow cytometer, and the strength of FITC fluorescence signals on MC38 cells treated with different antibody-based drugs was detected and compared, so as to characterize the affinity of ADC, THIOMAB and antibodies to PD-L1.

T1 sequence (Q9EP73 19-290): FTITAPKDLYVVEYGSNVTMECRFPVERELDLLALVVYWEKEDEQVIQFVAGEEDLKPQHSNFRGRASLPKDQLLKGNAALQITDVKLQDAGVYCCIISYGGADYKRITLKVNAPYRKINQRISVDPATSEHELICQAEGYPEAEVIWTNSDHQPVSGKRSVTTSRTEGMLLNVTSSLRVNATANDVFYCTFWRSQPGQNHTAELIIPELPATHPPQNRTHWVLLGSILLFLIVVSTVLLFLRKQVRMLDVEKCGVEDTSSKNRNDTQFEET

B1: ADC HE-S2 (anti-PD-L1 THIOMAB conjugated to Compound D18 through a disulfide bond linker, DAR 2) (other)
heavy: EVQLLESGGGLVQPGGSLRLSCAASGFTFSSYIMMWVRQAPGKGLEWVSSIYPSGGITFYADTVKGRFTISRDNSKNTLYLQMNSLRAEDTAVYYCARIKLGTVTTVNYWGQGTLVTVSS[sequence of human IgG1 constant region omitted]
light: QSALTQPASVSGSPGQSITISCTGTSSDVGGYNYVSWYQQHPGKAPKLMIYDVSNRPSGVSNRFSGSKSGNTASLTISGLQAEDEADYYCSSYTSSSTRVFGTGTKVTVLGQPKANPTVTLFPPSSEELQANKATLVCLISDFYPGAVTVAWKADGSPVKAGVETTKPSKQSNNKYAASSYLSLTPEQWKSHRSYSCQVTHEGSTCEKTVAPTECS
modifications: Compound D18 (TLR7/8 agonist) with disulfide bond linker (from Compound 20) on the cysteine at position 226 of SEQ ID NO: 9; DAR of 2
notes: Antibody-drug conjugate made from anti-PD-L1 THIOMAB and Compound 20; also called ADC1
In the case of B1, the MFI amounted to 392 and the “shift rate of the FITC positive signal relative to the NC group” value is 34.2%.

The record behind these values is patent US20240252670A1 (TSINGHUA UNIVERSITY, published 2024).
